Measured values published in the RNAGym collection of RNA variant scans (doi:10.7554/elife.90254).
Read counts are not given, so values of variants with three or more changes are uncertain.

B1: OR4K15 (parent)
chain: GUUAACGGUCAUAGGCCAUGGAAACUAGGAGCACCAUUUCGCUGCCAGUGAAGAAAUGAACAAAGAAAAUCUGGGCCAGGCAGGCAUCAAAAGAAAUAGUCUUGCGCUCAACCAGAAAGUCUGUAAUCAUUUUAAGGGUA

Variants of: B1
Assay: self-cleavage, relative activity (ratio to wild type); higher = more cleavage; in vitro, sequencing; the parent is a self-cleaving ribozyme

Variant	self-cleavage
U9C A116G U130C	0.15
A11G A24G A30U A56G A64G A98G A110G	0.01
U9C A59U A69G A78G A94G A111U	0.03
A11C A64G U87C	0.59
A11G A30G U49C U139C	1.41
A11C A36U U108C U124C	0
U9C C10U A69G U132C	1.61
A11C A95G U122A U130C	1.29
U9G A54G G99A A116U	0.32
A11G A18G A63G A91G A135U A140G	0.57
U9C A62G C107A A117U	0.04
U9C A33U A110G	0.25
A11G A18G A114U	0.09
A11G A18U U108G U127A	0.03
C10A U49C A64G A94G U100C	0.82
U9C U49C A118G	1.99
A11G A51G A59U U120A	1.32
U9C U43A A60G U70C A118G	0.22
U9G U43C A59U A62G A92G	1.78
C10U G79A A89G A140G	0.11
A11G A22G U49C A62G A68G	0.11
U9C G29A A55G A67G	1.62
A11G A52G U122A	0.37
U9C A90G A98G	0.55

Variant	self-cleavage
A11G A23G A33C A59U	1.38
U9C A95G A116G A117G	2.03
U9C A54U A55G A62U	0.57
A11G A63G A125U	1.6
A11G A22G U37C A47G A63G	0.41
U9C U19C A54G U127C	0.56
U9C U70C A114U	0.09
A11C U19C A30G A64G U127C	1.7
U9C A52G U102C	2.24
C10U U39C U130C	0.93
U9C A47U U57A U72C A94G	0.02
A11G A52G A59U A78U A116U	0.14
A11G A23G U38C U49C A86G	0.72
U9C A54G A91G	0.85
A11C A24C U39A U70C C71U A96G	0.58
U9C A60G A82G C113A	0.06
U9C A54U A86G A114G	0.4
U9C A36U A52G A68G A82C U132A	0.23
A11C A52G A110G	0.18
U9C G21A G53A	1.42
U9G A78U A135U	0.51
U9C A52U A68G U122C	0.88
U9C G21A A62G A63U U124A	0.7
C10U A60G A95U A117G A140G	0.05

Variant	self-cleavage
A11G A56G A66G A68G A110G	0.08
U9C U38C A69G	1.08
A11C U12C A78U	0.37
A11G A22G A60U A86G U102C	0.19
A11C A64G G74A U130C	0.13
U9C U38C A90G U108C	0
U9C A51G A86U	0.45
U9C A55G A63G	1.56
U9C A89U A129G	0.63
C10U A82G U103A A110G	0.01
A11G A18G A54U	1.11
U9C U12A A22G A111G	0.17
U9C U26A U87C	1.85
C10U A23G A56G	1.12
A11G A56G A60G U70C A86G	0.17
A11G A18U A90G A126G	1.31
U9C U70A C85U U131C	0.14
U9C U87C A89G	1.18
U9C A126G U132C	0.79
U9G A36C A86U	1.36
U9C A33G A66G A78G A91G A92G G106C A117G U132C	0.01
A11G A18G U72A	0.32
U9C U37C U38C U108C	0.04
U9C A69G G138A	2.22

Variant	self-cleavage
C10U A51G A56G	0.53
U9C U19C U72C A86G	0.28
A11G A18G A91G A95G A135G	1.11
A11G A55G U100C	1.11
A11G A18G U43A U108A	0.06
U9C C32U U37C C128U	1.24
C10U A11G A55G A86G A91G U122C U131C	0.05
A11G A24U A55G A96G G99U	0.48
A11G A23U A52G A63G A66G A114U	0.08
U9C A64G A67G U127A	2.3
U9C U39A G119A U122C	2.5
A11G A56G A129U A140G	0.85
A11G A30G A118G U122C	0.61
U9C U102A A111G U132C A135G	0
A11G A18G U26C A114U	0.04
U9C A52G A116G U120C	0.14
A11G A30G U72C	0.49
U9C U12C A47U U120A U122C	0.56
A11G A51G U102C	1.51
U9C A56G A95G U132C	1.93
U9C A60U C85U A91G	0.68
U9C A68U A91G A117G A118G U132A	0.5
U9C A91G U97C U133C	0.92
A11G A23G C35U A59G U103C	0.25

Variant	self-cleavage
U9C U108G A125G	0.01
U9C A60G A68G U72C U130C	0.22
A11G A54U A94G A118G	1.07
U9C A47G A94G U132C	1.46
A11C A51U A54G A55G A64G A66G A111G	0.02
U9C A55U A62G	1.34
U9C A66G A67U A110C	0.36
U9C A64C A91G U122C	0.99
U9C G106A A111G	0.01
U9C A54G A96U	1.23
A11G A56U A82U	0.07
U9C U39C A51G A116G A117G U122C	0.28
U9C C32U A110G	0.12
A11C A62G A67G C85G	0.7
U9C A33G A89G A94G U100C U120C	1.46
U9C A51G A60G A96G U130C U133C	2
U9C A56G A96G	1.8
A11G A59G A68G C85U	0.51
A11G A55U U97C	1.16
U9C C17U C35U U37C A116U	0.37
A11G A13G A23G	1.04
U9C A67U A78G	0.11
U9C U100A A111G	0.03
A11C A18C A24G	1.08

Variant	self-cleavage
U9C A51G A62G A95G	1.08
U9C A92G U108C C112U	0
A11C U37C U43C A78U	0.71
A11G A52G A56G A90G	1.25
A11G A18C U127C	0.64
A11G A55G U122C	0.54
C10U A56G A60G A82G	0.84
U9C G21A A55G A95G A110G U120C U130C	0.14
A11G A13G A33U U39C A117G A135G	1.44
U9C G15A U19C C109U	0.37
A11G A59G A64C A95U	0.47
U9C U49A A92G	1.53
U9G A56G A90G U127A	0.94
U9C U57A A86G A126G	1.24
A11G A55G C101A U131C	0.08
U9C A60G A68G	1.37
A11G A33G A82G A110G	0.11
A11G A24G U37C A95G	1.72
U9C A54G U132C	2
A11G A24G A56G A86G	0.59
U9C U38C G74C	0.33
A11G A51G A95G	0.61
U9C G41A C85G	1.09
U9C A63G U108A	0.06

Variant	self-cleavage
A11G A27G U87C A134G	1.14
A11G A13G U122C U132A	1.05
A11G A23U U122C	1.13
A11G A52G A63G A91U	0.8
U9C U12C A22G A89G A126G U127C	0.71
A11G A18G A36G	0.96
U9C A60G A66U C85U U100G	0.59
U9C G29A U87C A118U	0.65
A11G A47G A51C A69G U132C	0.11
U9C U100C A126G	1.06
U9C C17A A95G	1.32
C10A A56G A90G	0.91
U9C U39A U57A A140G	1.45
A11G A51G C105G U124C	0.03
A11G A24G A36U A51G A64G	1.43
U9C A52U A86C A118G	0.46
U9C C35U U122C	0.76
A11G A60G A91G A94G A116G	0.46
U9C A59G A118G	0.88
A11G A13G A62G U124C U127C	0.42
A11G A52G U87C	0.78
A11G A33G A69G	0.6
A11G A55G A82G U87C U132C	0.05
